Consider 167 variants from the RNAGym collection of RNA variant scans (doi:10.7554/elife.90254).

First the molecules themselves.
B1: LINE1-mini (parent)
chain: GGCAGAGCUCAACACAGCGUGGCAAAGUGGCUGUGGCUAGACUGCC

Read counts are not given, so values of variants with three or more changes are uncertain.

The variants in the series derive from B1. In words: self-cleavage, relative activity (ratio to wild type); higher = more cleavage; in vitro, sequencing; the parent is a self-cleaving ribozyme.
As for C3U A4U A11U, the self-cleavage stood at 0.04.
Regarding C3U G35A U43A, the self-cleavage came to 0.04.
Turning to C3U A11G C18A G22C U32G, the self-cleavage came to 0.01.
On to C3U G5U A26G C42G, for which the self-cleavage is 0.03.
For the variant C3U C10U G19A G21A G40U, the self-cleavage was 0.1.
As for C3U A24C G30C, the self-cleavage was found to be 0.58.
Take C3G G17A C18G G19U C46A: the self-cleavage worked out at 0.05.
As to C3G G19C C31G, the self-cleavage was 0.12.
Take C3U C15G G40U C42A: the self-cleavage came out at 0.06.
In the case of C3U A11G C15G G17A G21A A26G U34C G40U, the self-cleavage came to 0.
In the case of C3U C18G G19U U28A, the self-cleavage is 0.
Take C3U U9A C18U G36U: the self-cleavage came to 0.04.
With C3U A24G G30A C31A, the self-cleavage stood at 0.08.
For the variant C3U G22A C42U, the self-cleavage turned out to be 0.29.
With C3U U20C A25C G40U, the self-cleavage stood at 0.04.
As to C3G G33A U43A, the self-cleavage was determined as 0.04.
In the case of C3U A14U G29A, the self-cleavage turned out to be 0.16.
Consider C3U U20A A25U G30U U38A, for which the self-cleavage came to 0.06.
On to C3G U28C G36A, for which the self-cleavage is 1.13.
For the variant C3U A4C C8A U32A U34C G44U, the self-cleavage came to 0.06.
Consider C3U U9A C37G G44A C45U, for which the self-cleavage is 0.02.
As to A4C A6C G27A, the self-cleavage was 0.04.
For the variant C3G G17A A26C G33C, the self-cleavage is 0.07.
For C3U C23G U34G C42G, the self-cleavage was found to be 0.01.
As to C3G U28G C31G G33U C37U, the self-cleavage is 0.03.
In the case of C3U U28A C31G G40U, the self-cleavage amounted to 0.02.
For C3U A4G C42U, the self-cleavage came to 0.09.
For C3U G21U A24G U28C the value was 0.1.
In the case of C3U C15A A16G G44U C45U, the self-cleavage was found to be 0.09.
The figure for C3U C18U G30U U38C G44C is 0.04; for C3G G19A U28A it is 0.17; for C3U C13A G19C A25C G30A G35U it is 0.05.
In the case of C3U U9C C15A U28C C46G, the self-cleavage is 0.02.
As to C3U U20C U32C, the self-cleavage was determined as 0.08.
In the case of C3U A4G G5A A6G C37U, the self-cleavage turned out to be 0.06.
For C3U G5A A6U A11G C37A C42A, the self-cleavage was 0.02.
As for C3U G29C G36U, the self-cleavage amounted to 0.1.
For the variant C3U U9C C10G U32C C45U, the self-cleavage is 0.08.
The figure for C3U A11U C45A C46G is 0.
For C3U G7A G30C A39U, the self-cleavage was determined as 0.75.
Turning to C3U C13G G19C, the self-cleavage came to 0.04.
With C3U A4U U28G, the self-cleavage is 0.26.
For C3U A14C A25U U38C the value was 0.08; for C3U G30U G33A G44A, 0.04; for C3U G19C G36U C42G, 0.03.
For C3U C13A A16G A26G the value was 0.02; for C3U U9G A25C U34C C46G, 0.16.
As to C3U C8G U28G G36A, the self-cleavage was found to be 0.24.
Turning to C3G G19U G35C, the self-cleavage stood at 0.07.
In the case of C3U C8U A16G, the self-cleavage was 0.09.
The figure for C3U A6U G17U A39G is 0.07.
For C3G G21U U28A C37A the value was 0.06; for C3U G27U U38A, 0.18.
With C3U C13U A25G G44U, the self-cleavage came out at 0.08.
In the case of C3U G5C A6G, the self-cleavage was 0.01.
For the variant C3U A6G A11U A39U G44A, the self-cleavage amounted to 0.01.
With C3U A6C G17A A26U C31U, the self-cleavage was found to be 0.27.
Turning to C3U G7C A12U U20A, the self-cleavage came out at 0.02.
The figure for C3U U32A G33U A39G is 0.03; for C3G G17U U20G C37U it is 0.02.
In the case of C3U A4G G22U, the self-cleavage was 0.24.
Turning to C3U C18U G30C C45U, the self-cleavage was determined as 0.41.
Consider C3U G7A G27C G40U U43G, for which the self-cleavage was 0.17.
Consider C3U G21C A26G G30U, for which the self-cleavage is 0.05.
Consider C3U U9A G19C A24U, for which the self-cleavage worked out at 0.13.
C3U G22C U34A: the self-cleavage amounted to 0.07.
For C3U G17A A25G C45U the value was 0.03; for C3U A6C G7C, 0.14.
As to C3U C8G A12G A16C A25C G40A, the self-cleavage was 0.
Regarding C3U G17U A24G, the self-cleavage turned out to be 0.04.
Take C3U G22A A41U: the self-cleavage came out at 1.64.
With C3U G17U G21U A41G, the self-cleavage was found to be 0.05.
Take C3U A4U C45A: the self-cleavage came to 0.14.
As to C3U C10A G30U G33U G44A, the self-cleavage came to 0.02.
Regarding C3U A39G C45G, the self-cleavage was found to be 0.02.
Regarding A4C A6C G7U G17C G30C G44A, the self-cleavage worked out at 0.24.
For C3U G36C G40U C46A, the self-cleavage stood at 0.31.
Regarding C3U C13G G30C, the self-cleavage stood at 0.07.
On to C3G G7U C13U A14C G33C, for which the self-cleavage was found to be 0.06.
For C3U C13U G22A, the self-cleavage stood at 0.17.
The figure for C3G G29A C46A is 0.21.
Consider C3U G17A C31G, for which the self-cleavage stood at 0.05.
Take C3U U9C C15U A16G G17U C18A G30A: the self-cleavage was found to be 0.03.
With C3U G22C A24U C37U, the self-cleavage worked out at 0.03.
Take C3G G21C C23A: the self-cleavage is 0.23.
For C3U G17A G36C C45U the value was 0.01.
Consider C3G G27A C46A, for which the self-cleavage amounted to 0.11.
For the variant C3G G21U G40C, the self-cleavage was determined as 0.17.
The figure for C3G U9G G22A U38G is 0.16; for C3U A12U G35A it is 0.27; for C3U G5U U9C U20A G22A G27C it is 0.01.
For C3U A16C U20A G29C U32C, the self-cleavage stood at 0.06.
Turning to C3U U20A A41C C46G, the self-cleavage amounted to 0.05.
With C3U A4C A24C C46U, the self-cleavage came to 0.06.
For the variant C3U G27U U34G G40A, the self-cleavage is 0.03.
In the case of C3U A6U A11C C18U G19A G30A, the self-cleavage came to 0.01.
In the case of C3U C13A C23U U43A G44U, the self-cleavage was determined as 0.06.
As for C3U C8A C10G G33C G40U U43A, the self-cleavage was 0.04.
As to C3U G17C U28G, the self-cleavage worked out at 0.18.
Take C3U A6C G7A C15U G17C C18A: the self-cleavage is 0.36.
Consider C3U C8U A26U U38G, for which the self-cleavage was determined as 0.
On to C3G G7U C8G C15A U20C C23A C42U U43G, for which the self-cleavage turned out to be 0.21.
C3U G7A C8U C23A A24U: the self-cleavage worked out at 0.14.
For C3U C15U C23A G30A A39U the value was 0.04.
For C3U A4U C18A G29C C31A G33U U43A G44A the value was 0.02.
The figure for C3U G7U A12U A24C A26C is 0.04; for C3U G19A G33U it is 0.13.
Turning to C3U A6C A12G G17A, the self-cleavage came out at 0.07.
For C3U A11G G17A A24U C31A, the self-cleavage came out at 0.02.
Turning to C3U C10A G22A A26G U28A, the self-cleavage came to 0.02.
Take C3U G19C C23U: the self-cleavage was 0.14.
In the case of C3G G19U C23G G30A, the self-cleavage is 0.76.
For C3G G19C G35A C37U U38A, the self-cleavage amounted to 0.02.
As to C3U U28A U34G, the self-cleavage is 0.11.
With C3U C15U U20G G22C A26C C31G, the self-cleavage was determined as 0.07.
Take C3G G7C U38G: the self-cleavage is 0.05.
For C3U G21A A25U, the self-cleavage is 1.22.
The figure for C3G G19C U20C C23U is 0.15; for C3U A25U G44U it is 0.1.
For the variant C3U C18G G29U G44A, the self-cleavage worked out at 1.37.
With C3U C8U C13A, the self-cleavage was 1.23.
Regarding C3U A16G G29U A39U, the self-cleavage amounted to 0.06.
C3U C31U G40U G44U C45G: the self-cleavage turned out to be 0.05.
For the variant C3U A11G U20G G21U U28A A39U G44A, the self-cleavage is 0.02.
For C3U A12U G22U C23A C31A G36C the value was 0.02; for C3U C10U C18G, 0.05.
As to C3U U9A G40U, the self-cleavage is 0.01.
Regarding C3U G17C A24U G30C G40U C45U, the self-cleavage worked out at 0.02.
Regarding C3U C18U G33U C42A, the self-cleavage turned out to be 0.06.
Consider C3U C10U G27U, for which the self-cleavage was found to be 0.12.
On to C3U C31A U34G A39U, for which the self-cleavage worked out at 0.
As to C3G G17C G35U, the self-cleavage was determined as 0.15.
As to C3G G17U A26C, the self-cleavage came out at 0.05.
In the case of C3G G40C G44U, the self-cleavage turned out to be 0.07.
For C3G U20C G40A the value was 0.19; for C3U G7C C10U G17A U32C C45A, 0.05; for C3G G7U U9G C46U, 0.61.
As to C3U G7U A16C G30C, the self-cleavage was found to be 0.12.
Regarding C3U G5U U28A, the self-cleavage was determined as 0.09.
As for C3U G35C C46A, the self-cleavage came out at 0.04.
Consider C3U G7A C15A G27C, for which the self-cleavage worked out at 0.3.
Turning to C3G U28A C31A G36C U38A U43A, the self-cleavage amounted to 0.12.
The figure for C3U G5U A41U is 0.45; for C3U C23U A24C U32G G36U it is 0.08.
In the case of C3U C10A A24C U28C, the self-cleavage turned out to be 0.01.
Take C3G G33A A41C: the self-cleavage turned out to be 0.18.
For A4C A11C C18G G21A C46U the value was 0.02.
Regarding C3G G29U G30A, the self-cleavage turned out to be 0.15.
Consider C3G G19C G33C, for which the self-cleavage was determined as 0.09.
Turning to C3U A26G U38G A41G, the self-cleavage is 0.01.
On to C3U G27C G29A, for which the self-cleavage was 0.08.
Turning to C3U G30U U43C, the self-cleavage came out at 0.23.
For C3U C8A A12G G22U U32G, the self-cleavage came out at 0.19.
For C3U G21C G29C G33A C45A the value was 0.03.
C3U C8A A25C U38C C46U: the self-cleavage was 0.46.
The figure for C3U C23A G27A G44U is 0.36.
In the case of C3U C10A A14G A26G A39U, the self-cleavage came out at 0.01.
Turning to C3G G17C G30U, the self-cleavage was 0.01.
With C3U C10A A16U, the self-cleavage turned out to be 0.
With C3U C8G C15A, the self-cleavage stood at 0.31.
On to C3G G33U U34C G40A C42G, for which the self-cleavage was 0.15.
Regarding C3U G21U C42G, the self-cleavage came out at 0.12.
For C3U A11C A12C G21U G30U G35U C37U C45A the value was 0.
Consider C3U C8G C10A G33A C37G G40U, for which the self-cleavage came out at 0.03.
As to C3U A16C G35A, the self-cleavage was determined as 0.01.
C3G U9C C15G A16C C18A U38G: the self-cleavage turned out to be 0.02.
In the case of C3U G17U A25C, the self-cleavage amounted to 0.04.
